# Test results reported in the supplement of paper PMC9927326.
# MIC of clinical C. albicans isolates, CLSI broth microdilution (ranges and time not stated); higher = less susceptible. Call: susceptible or wild type [S] / resistant or non-wild type [R] by CLSI breakpoints or epidemiological cut-offs; intermediate and dose-dependent carry no call here (the paper groups them with resistant). '<=' and '>=' mark each drug's lowest and highest value, inferred; the source prints them plain. Isolates are numbered anew.
# Legend:
# Test in all cases: CLSI broth microdilution.
# [1] = compound: C[C@@H](c1ncncc1F)[C@](O)(Cn1cncn1)c1ccc(F)cc1F [voriconazole]
# [2] = compound: CCC(C)n1ncn(-c2ccc(N3CCN(c4ccc(OCC5COC(Cn6cncn6)(c6ccc(Cl)cc6Cl)O5)cc4)CC3)cc2)c1=O [itraconazole]
# [3] = compound: CC[C@H](C)C[C@H](C)CCCCCCCCC(=O)N[C@H]1C[C@@H](O)[C@@H](NCCN)NC(=O)[C@@H]2[C@@H](O)CCN2C(=O)[C@H]([C@H](O)CCN)NC(=O)[C@H]([C@H](O)[C@@H](O)c2ccc(O)cc2)NC(=O)[C@@H]2C[C@@H](O)CN2C(=O)[C@H]([C@@H](C)O)NC1=O [caspofungin]
# [4] = compound: CCCCCOc1ccc(-c2cc(-c3ccc(C(=O)N[C@H]4C[C@@H](O)[C@@H](O)NC(=O)[C@@H]5[C@@H](O)[C@@H](C)CN5C(=O)[C@H]([C@H](O)CC(N)=O)NC(=O)[C@H]([C@H](O)[C@@H](O)c5ccc(O)c(OS(=O)(=O)O)c5)NC(=O)[C@@H]5C[C@@H](O)CN5C(=O)[C@H]([C@@H](C)O)NC4=O)cc3)no2)cc1 [micafungin]
# [5] = compound: C[C@@H]1[C@H](O)[C@@H](C)/C=C/C=C/C=C/C=C/C=C/C=C/C=C/[C@H](O[C@@H]2O[C@H](C)[C@@H](O)[C@H](N)[C@@H]2O)C[C@@H]2O[C@](O)(C[C@@H](O)C[C@@H](O)[C@H](O)CC[C@@H](O)C[C@@H](O)CC(=O)O[C@H]1C)C[C@H](O)[C@H]2C(=O)O [amphotericin B]
# [6] = compound: CC[C@@H]([C@H](C)O)n1ncn(-c2ccc(N3CCN(c4ccc(OC[C@@H]5CO[C@@](Cn6cncn6)(c6ccc(F)cc6F)C5)cc4)CC3)cc2)c1=O [posaconazole]
# [7] = compound: Nc1[nH]c(=O)ncc1F [flucytosine]
# [8] = compound: CCCCCOc1ccc(-c2ccc(-c3ccc(C(=O)N[C@H]4C[C@@H](O)[C@@H](O)NC(=O)[C@@H]5[C@@H](O)[C@@H](C)CN5C(=O)[C@H]([C@@H](C)O)NC(=O)[C@H]([C@H](O)[C@@H](O)c5ccc(O)cc5)NC(=O)[C@@H]5C[C@@H](O)CN5C(=O)[C@H]([C@@H](C)O)NC4=O)cc3)cc2)cc1 [anidulafungin]
# [9] = compound: OC(Cn1cncn1)(Cn1cncn1)c1ccc(F)cc1F [fluconazole]
Test System,MIC [1],MIC [2],MIC [3],MIC [4],MIC [5],MIC [6],MIC [7],MIC [8],MIC [9]
"Candida albicans isolate 272 (Erg11p: WT, Fur1p: WT, Tac1p: M170V,S108N)",≤ 0.008 mg/L [S],0.03 mg/L [S],0.03 mg/L [S],0.015 mg/L [S],0.25 mg/L [S],0.03 mg/L [S],≤ 0.06 mg/L [S],0.06 mg/L [S],0.25 mg/L [S]
"Candida albicans isolate 67 (Erg11p: WT, Fur1p: WT, Tac1p: N896S)",≤ 0.008 mg/L [S],0.06 mg/L [S],0.03 mg/L [S],0.015 mg/L [S],0.25 mg/L [S],0.03 mg/L [S],≤ 0.06 mg/L [S],0.03 mg/L [S],0.5 mg/L [S]
"Candida albicans isolate 348 (Erg11p: WT, Fur1p: WT, Tac1p: N896S)",≤ 0.008 mg/L [S],0.03 mg/L [S],0.03 mg/L [S],≤ 0.008 mg/L [S],0.5 mg/L [S],0.015 mg/L [S],≤ 0.06 mg/L [S],≤ 0.015 mg/L [S],0.25 mg/L [S]
"Candida albicans isolate 102 (Erg11p: E266D, Fur1p: WT, Tac1p: N896S)",≤ 0.008 mg/L [S],≤ 0.015 mg/L [S],0.03 mg/L [S],≤ 0.008 mg/L [S],0.25 mg/L [S],0.015 mg/L [S],≤ 0.06 mg/L [S],0.03 mg/L [S],0.5 mg/L [S]
"Candida albicans isolate 232 (Erg11p: D153E, Fur1p: WT, Tac1p: 858Y,N823K,I558V,F189S)",≤ 0.008 mg/L [S],0.03 mg/L [S],0.015 mg/L [S],0.015 mg/L [S],0.5 mg/L [S],0.015 mg/L [S],0.12 mg/L [S],≤ 0.015 mg/L [S],0.5 mg/L [S]
"Candida albicans isolate 296 (Erg11p: E266D, Fur1p: WT, Tac1p: G709S,I558V,A377V,F189S,N174D,M170I,K87N)",≤ 0.008 mg/L [S],0.03 mg/L [S],0.03 mg/L [S],≤ 0.008 mg/L [S],0.5 mg/L [S],0.03 mg/L [S],≤ 0.06 mg/L [S],≤ 0.015 mg/L [S],0.5 mg/L [S]
"Candida albicans isolate 271 (Erg11p: E266D, Fur1p: WT, Tac1p: N896S,I558V,A377V,F189S,N174D,M170I,K87N)",≤ 0.008 mg/L [S],0.03 mg/L [S],0.03 mg/L [S],0.015 mg/L [S],0.25 mg/L [S],0.015 mg/L [S],≤ 0.06 mg/L [S],0.03 mg/L [S],0.5 mg/L [S]
"Candida albicans isolate 243 (Erg11p: V488I,V437I,E266D,K143E, Fur1p: WT, Tac1p: I895T,T782A,I558V,A377V,F189S,N174D,M170I,M170V,K87N)",0.015 mg/L [S],0.03 mg/L [S],0.015 mg/L [S],≤ 0.008 mg/L [S],0.25 mg/L [S],0.015 mg/L [S],≤ 0.06 mg/L [S],≤ 0.015 mg/L [S],2 mg/L [S]
"Candida albicans isolate 198 (Erg11p: G448E,Y132H, Fur1p: R101C, Tac1p: WT)",0.5 µg/mL,0.12 mg/L [S],0.03 mg/L [S],0.015 mg/L [S],0.25 mg/L [S],0.06 mg/L [S],≤ 0.06 mg/L [S],≤ 0.015 mg/L [S],16 mg/L [R]
"Candida albicans isolate 108 (Erg11p: G100V, Fur1p: WT, Tac1p: N896S)",≤ 0.008 mg/L [S],0.03 mg/L [S],0.015 mg/L [S],≤ 0.008 mg/L [S],0.25 mg/L [S],0.015 mg/L [S],≤ 0.06 mg/L [S],≤ 0.015 mg/L [S],0.5 mg/L [S]
"Candida albicans isolate 323 (Erg11p: V488I,E266D, Fur1p: WT, Tac1p: M170V,S108N)",≤ 0.008 mg/L [S],0.06 mg/L [S],0.03 mg/L [S],0.015 mg/L [S],0.5 mg/L [S],0.015 mg/L [S],≤ 0.06 mg/L [S],0.06 mg/L [S],0.5 mg/L [S]
"Candida albicans isolate 153 (Erg11p: G465S,Y132H, Fur1p: R101C, Tac1p: WT)",0.25 µg/mL,0.03 mg/L [S],0.015 mg/L [S],0.015 mg/L [S],0.25 mg/L [S],0.015 mg/L [S],0.12 mg/L [S],≤ 0.015 mg/L [S],4 µg/mL
"Candida albicans isolate 183 (Erg11p: V488I,V362I,E266D, Fur1p: WT, Tac1p: N896S,S410G,M170V,S108N)",≤ 0.008 mg/L [S],0.03 mg/L [S],0.06 mg/L [S],0.015 mg/L [S],0.5 mg/L [S],0.015 mg/L [S],≤ 0.06 mg/L [S],0.12 mg/L [S],0.25 mg/L [S]
"Candida albicans isolate 291 (Erg11p: D153E, Fur1p: WT, Tac1p: WT)",≤ 0.008 mg/L [S],0.06 mg/L [S],0.03 mg/L [S],0.015 mg/L [S],0.5 mg/L [S],0.03 mg/L [S],≤ 0.06 mg/L [S],≤ 0.015 mg/L [S],0.25 mg/L [S]
"Candida albicans isolate 364 (Erg11p: V488I,E266D, Fur1p: WT, Tac1p: N896S)",≤ 0.008 mg/L [S],≤ 0.015 mg/L [S],0.015 mg/L [S],≤ 0.008 mg/L [S],0.25 mg/L [S],0.015 mg/L [S],≤ 0.06 mg/L [S],0.06 mg/L [S],0.25 mg/L [S]
"Candida albicans isolate 123 (Erg11p: WT, Fur1p: WT, Tac1p: I558V,A377V,F189S,N174D,M170I,K87N)",≤ 0.008 mg/L [S],≤ 0.015 mg/L [S],0.03 mg/L [S],0.015 mg/L [S],0.25 mg/L [S],0.015 mg/L [S],≤ 0.06 mg/L [S],0.06 mg/L [S],0.25 mg/L [S]
